These results are taken from publication PMC10046941.

By UniProt entry, the sequences of proteins in these tests, tags left out. Where a name states a change or a piece, a line headed by the entry shows the natural chain unless it says otherwise. Chains listed by the source or under a name are the forms on record and can include a tag or linker. Residues count along the entry.
UniProt P10923: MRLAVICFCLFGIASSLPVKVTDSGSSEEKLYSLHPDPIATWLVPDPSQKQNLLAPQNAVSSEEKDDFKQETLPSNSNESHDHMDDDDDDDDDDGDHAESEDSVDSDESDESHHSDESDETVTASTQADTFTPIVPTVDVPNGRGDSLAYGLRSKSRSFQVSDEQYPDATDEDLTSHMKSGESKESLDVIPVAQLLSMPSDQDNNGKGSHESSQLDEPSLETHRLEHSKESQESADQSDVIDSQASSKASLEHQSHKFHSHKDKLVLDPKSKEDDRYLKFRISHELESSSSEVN
osteopontin (OPN), endogenous in BV-2 cells (mouse (endogenous in BV-2)): residues 17-294 of P10923
N-terminal fragment of OPN (Met1-Gly151), Flag-tagged: residues 17-151 of P10923
C-terminal fragment of OPN (Leu152-Asn294), Flag-tagged: residues 152-294 of P10923
UniProt P16110: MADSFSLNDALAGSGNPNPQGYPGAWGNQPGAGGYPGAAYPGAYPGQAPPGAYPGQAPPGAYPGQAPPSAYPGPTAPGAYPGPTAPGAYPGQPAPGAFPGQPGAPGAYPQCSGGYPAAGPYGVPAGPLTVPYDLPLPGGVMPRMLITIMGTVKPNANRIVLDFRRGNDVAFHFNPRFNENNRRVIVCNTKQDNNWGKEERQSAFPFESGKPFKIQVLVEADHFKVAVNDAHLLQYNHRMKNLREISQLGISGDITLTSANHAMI

Results are given in words; binding and its absence hold for the method and conditions named. Binding seen in cells or lysates may run through a third protein. Some entries that bind do so weakly or less than the wild type.

Assay [1] addresses N-terminal fragment of OPN (Met1-Gly151), Flag-tagged (UniProt P10923). In words: co-IP; HEK293T cells with plasmids of GAL-3 and OPN-WT-Flag, OPN-N-Flag or OPN-C-Flag; Western blot; precipitating antibody not told for this experiment.
Assay [2] has as its target C-terminal fragment of OPN (Leu152-Asn294), Flag-tagged (UniProt P10923). The description is as above.
For assay [3], the target named is wild-type OPN-Flag (UniProt P10923). The description is as above.
In assay [4] the target is OPN protein translated in vitro (UniProt P10923). In words: co-IP; OPN and GAL-3 translated in vitro (TnT T7 Coupled Reticulocyte Lysate Systems), products combined, then the same co-IP procedure as for cell lysates.
Assay [5] has as its target osteopontin (OPN), endogenous in BV-2 cells (mouse (endogenous in BV-2)) (UniProt P10923). In words: co-IP; whole-cell lysates of BV-2 cells treated with OGD for 3 h; protein A + G agarose beads with antibody against OPN, 4 °C overnight; IgG of the same species as negative control; Western blot.

Consider “GAL-3 expressed from a plasmid in HEK293T cells (from UniProt P16110 1-264)”, for which the binding entry in assay [1] is reported as “no binding”; in assay [2] it was “binds”; in assay [3], “binds”.
With “GAL-3 protein translated in vitro (from UniProt P16110 1-264)”, the binding result in assay [4] is recorded as “binds”.
“galectin-3 (GAL-3), endogenous in BV-2 cells (from UniProt P16110 1-264)”: the binding result in assay [5] is “binds”.
